Data from a compilation of properties of binary mixtures (doi:10.1016/j.molliq.2022.118933).
The densities may have been worked out from excess volumes.

Assay: xn = mol fraction of the nth substance listed
Details: 100 kPa

CCCC[N+](C)(C)C[c-]1cccc1.O=S(=O)([N-]S(=O)(=O)C(F)(F)F)C(F)(F)F.[Fe+2].c1cc[cH-]c1 + CC#N
Details	mass density [kg/m3]
293 K, x1 = 0.01	839.1
293 K, x1 = 0.02	887.6
293 K, x1 = 0.03	930.8
293 K, x1 = 0.07	1062.1
293 K, x1 = 0.08	1087
293 K, x1 = 0.1	1128.7
293 K, x1 = 0.12	1165.7
293 K, x1 = 0.15	1209.6
293 K, x1 = 0.2	1259.7
298 K, x1 = 0.01	833.7
298 K, x1 = 0.02	882.2
298 K, x1 = 0.05	996.7
298 K, x1 = 0.06	1030.9
298 K, x1 = 0.07	1056.8
298 K, x1 = 0.08	1081.8
298 K, x1 = 0.1	1123.5
298 K, x1 = 0.12	1160.6
298 K, x1 = 0.15	1204.5
298 K, x1 = 0.2	1254.8
303 K, x1 = 0.01	828.3
303 K, x1 = 0.02	876.8
303 K, x1 = 0.03	920
303 K, x1 = 0.05	991.3
303 K, x1 = 0.06	1025.5
303 K, x1 = 0.07	1051.4
303 K, x1 = 0.08	1076.4
303 K, x1 = 0.12	1155.4
303 K, x1 = 0.15	1199.4
303 K, x1 = 0.2	1248.9
308 K, x1 = 0.01	822.8
308 K, x1 = 0.02	871.4
308 K, x1 = 0.03	914.6
308 K, x1 = 0.05	986
308 K, x1 = 0.06	1020.2
308 K, x1 = 0.07	1046.2
308 K, x1 = 0.1	1113.2
308 K, x1 = 0.12	1150.3
308 K, x1 = 0.15	1194.4
313 K, x1 = 0.01	817.4
313 K, x1 = 0.02	866
313 K, x1 = 0.03	909.2
313 K, x1 = 0.05	980.6
313 K, x1 = 0.06	1015
313 K, x1 = 0.08	1066.1
313 K, x1 = 0.1	1108
313 K, x1 = 0.12	1145.3
313 K, x1 = 0.15	1189.4
313 K, x1 = 0.2	1240.1
318 K, x1 = 0.02	860.4
318 K, x1 = 0.03	903.7
318 K, x1 = 0.05	975.1
318 K, x1 = 0.07	1035.5
318 K, x1 = 0.1	1102.7
318 K, x1 = 0.12	1140
323 K, x1 = 0.02	854.6
323 K, x1 = 0.03	897.9
323 K, x1 = 0.05	969.4
323 K, x1 = 0.06	1003.8
323 K, x1 = 0.07	1029.9
323 K, x1 = 0.08	1055.1
323 K, x1 = 0.1	1097.2
323 K, x1 = 0.12	1134.6
323 K, x1 = 0.15	1178.9
328 K, x1 = 0.01	800.5
328 K, x1 = 0.02	849.1
328 K, x1 = 0.03	892.4
328 K, x1 = 0.06	998.5
328 K, x1 = 0.07	1024.6
328 K, x1 = 0.08	1049.8
328 K, x1 = 0.1	1092
328 K, x1 = 0.15	1173.9
328 K, x1 = 0.2	1224.8
333 K, x1 = 0.05	958.6
333 K, x1 = 0.06	993.2
333 K, x1 = 0.08	1044.6
333 K, x1 = 0.1	1086.9
333 K, x1 = 0.12	1124.5
333 K, x1 = 0.15	1168.9
333 K, x1 = 0.2	1220
338 K, x1 = 0.01	789.6
338 K, x1 = 0.02	838.3
338 K, x1 = 0.03	881.6
338 K, x1 = 0.06	988
338 K, x1 = 0.08	1039.6
338 K, x1 = 0.1	1082
338 K, x1 = 0.12	1119.6
338 K, x1 = 0.15	1164.2
338 K, x1 = 0.2	1215.4
343 K, x1 = 0.01	783.6
343 K, x1 = 0.02	832.3
343 K, x1 = 0.03	875.7
343 K, x1 = 0.05	947.6
343 K, x1 = 0.06	982.3
343 K, x1 = 0.1	1076.4
343 K, x1 = 0.12	1114.2
343 K, x1 = 0.2	1210.1
348 K, x1 = 0.01	777.8
348 K, x1 = 0.03	869.9
348 K, x1 = 0.05	941.9
348 K, x1 = 0.06	976.6
348 K, x1 = 0.1	1070.9
348 K, x1 = 0.15	1153.5
348 K, x1 = 0.2	1204.9
